Reference: patent US20090247734A1 (priority 2005, published 2009)

Target: full length YU2 gp120 (HIV-1 strain YU2) (UniProt P35961)
Experiment: ITC, gp120 equilibrated with D1D2

Q: Which increase in ΔG value in the presence of D1D2 does the source give for “17b (human monoclonal antibody of gp120)” here?
A: 3.35 kJ/mol
